B1: Myeloid differentiation primary response protein MyD88 (Homo sapiens), Q99836-1 (parent)
chain: MAAGGPGAGSAAPVSSTSSLPLAALNMRVRRRLSLFLNVRTQVAADWTALAEEMDFEYLEIRQLETQADPTGRLLDAWQGRPGASVGRLLELLTKLGRDDVLLELGPSIEEDCQKYILKQQQEEAEKPLQVAAVDSSVPRTAELAGITTLDDPLGHMPERFDAFICYCPSDIQFVQEMIRQLEQTNYRLKLCVSDRDVLPGTCVWSIASELIEKRCRRMVVVVSDDYLQSKECDFQTKFALSLSPGAHQKRLIPIKYKAMKKEFPSILRFITVCDYTNPCTKSWFWTRLAKALSLP
B2: Myeloid differentiation primary response protein MyD88 (Homo sapiens), Q99836-1 (parent)
chain: B1 chain
partner: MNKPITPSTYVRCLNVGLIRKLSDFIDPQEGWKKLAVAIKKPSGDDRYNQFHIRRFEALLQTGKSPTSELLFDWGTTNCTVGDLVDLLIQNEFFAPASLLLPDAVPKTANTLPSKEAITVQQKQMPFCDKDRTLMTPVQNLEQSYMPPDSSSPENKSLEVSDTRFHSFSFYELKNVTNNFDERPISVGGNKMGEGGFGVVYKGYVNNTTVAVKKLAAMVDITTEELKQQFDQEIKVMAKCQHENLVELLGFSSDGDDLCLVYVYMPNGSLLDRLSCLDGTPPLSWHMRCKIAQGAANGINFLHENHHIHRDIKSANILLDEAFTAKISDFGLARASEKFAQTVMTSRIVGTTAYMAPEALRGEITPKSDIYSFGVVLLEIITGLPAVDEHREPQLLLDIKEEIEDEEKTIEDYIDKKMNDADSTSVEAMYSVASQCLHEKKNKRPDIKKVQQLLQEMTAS

Variants of: B1
Details: with p58753-2 TIRAP

Variant	effect of a mutation on the interaction
R196C	decreasing interaction strength

Variants of: B2
Details: with irak4_human IRAK4, Q9NWZ3

Variant	effect of a mutation on the interaction
R98C	disrupting interaction strength
